Measured values as given in PubChem BioAssay AID1768 (National Center for Advancing Translational Sciences (NCATS), 2009).
The whole screen tested about 270,000 compounds, of which about 620 (0.23%) were called active. Inconclusive results, whose numbers are uncertain, are shown with a selection of clear calls. Calls come from the whole dose curve; as a rule, active = well fitted inhibition curve with a large enough effect in the polarisation, with a control signal flat (not every such curve was filed as active); inconclusive = small, poorly fitted or top-dose-only effect, or effect the other way, or a change in a side signal; inactive = no such curve, though single readings can be large or run the other way; the % refers to the polarisation. Potencies of inconclusive entries are doubtful fits and often do not repeat. “Side channel” marks fits to a control or component signal instead of the main read-out.

target: Menin (Homo sapiens) (UniProt O00255); test: qHTS Assay for Inhibitors Targeting the Menin-MLL Interaction in MLL Related Leukemias: Competition With Texas Red Labeled MLL-derived Mutant Peptide; conditions: fluorescence polarization; FP activity change, negative = inhibition: at 61.6 µM (top of the series); for FP activity change, negative = inhibition: % of control where 0% means no effect
Potency is the fitted concentration of half-maximal effect; tags give direction and shape of the fitted curve or compound fluorescence and quenching.

Chain of UniProt O00255 (O00255 whole entry, looked up): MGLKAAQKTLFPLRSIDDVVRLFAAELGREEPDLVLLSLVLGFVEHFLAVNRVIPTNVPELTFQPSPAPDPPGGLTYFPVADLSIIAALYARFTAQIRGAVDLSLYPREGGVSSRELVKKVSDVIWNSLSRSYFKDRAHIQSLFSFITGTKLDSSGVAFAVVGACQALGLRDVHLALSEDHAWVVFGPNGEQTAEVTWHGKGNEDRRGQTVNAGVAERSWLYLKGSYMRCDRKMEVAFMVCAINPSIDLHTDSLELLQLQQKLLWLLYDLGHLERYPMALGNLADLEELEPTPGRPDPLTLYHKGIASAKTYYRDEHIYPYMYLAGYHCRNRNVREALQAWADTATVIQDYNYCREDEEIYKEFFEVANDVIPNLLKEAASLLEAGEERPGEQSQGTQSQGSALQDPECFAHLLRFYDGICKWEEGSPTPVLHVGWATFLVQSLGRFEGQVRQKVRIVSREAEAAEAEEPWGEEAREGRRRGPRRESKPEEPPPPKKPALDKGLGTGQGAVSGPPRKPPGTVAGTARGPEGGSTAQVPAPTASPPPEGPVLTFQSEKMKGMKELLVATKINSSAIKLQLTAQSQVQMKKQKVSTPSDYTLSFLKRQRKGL

FP activity change, negative = inhibition, inactive:
COc1cccc(-c2ccc3ncnc(N4CCN(C)CC4)c3c2)c1 -19.5%
COc1ccc(/C=N/Nc2nnc(-c3ccccc3)c(=O)[nH]2)cc1 3.05%
Cc1cc(C(C)(C)C)ccc1OCCOCCN1CCCC1 -6.42%
O=C(N/N=C\c1ccc(COc2ccc([N+](=O)[O-])cc2)o1)c1ccc(Cl)cc1 2.71%
N#Cc1c(-c2cccc(Br)c2)cc(-c2cccnc2)nc1N 20.4%
CCC(=O)Nc1ccc(-c2nnc(SCC(=O)NCC3CCCO3)n2C)cc1 (stereo not drawn) 12.2%
Cc1c(NC(=O)COC(=O)c2ccc[nH]c2=O)c(=O)n(-c2ccccc2)n1C -1.43%
O=C(Oc1ccc(-c2nccc(-c3ccccn3)n2)cc1)c1cccc(C(F)(F)F)c1 29%
COc1cc(C2Nc3ccccc3C(=O)N2c2ccc(Cl)cc2)c(Cl)cc1OCC(=O)O (stereo not drawn) 5.71%
Cc1ccc(S(=O)(=O)CC2CSc3nnc(C)c(=O)n32)cc1 (stereo not drawn) -23.3%

Potency, inconclusive:
Cc1ccccc1-c1nc(-c2ccc(NC(=O)c3ccc(Br)o3)cc2)no1 12.6 µM [quencher, side channel, partial curve]
CCOc1ccc(N(CC(=O)NCc2ccc(OC)cc2)C(=O)CCC(=O)Nc2nccs2)cc1 25.1 µM [fluorescent, side channel, partial curve]
O=C1C(c2ccncc2)N(CCC2=CCCCC2)C(=O)CN1C1CCCCC1 (stereo not drawn) 22.4 µM [fluorescent, side channel, single point]
Cc1cc2cc(CNC(=S)Nc3ccc(OC(F)(F)F)cc3)ccc2[nH]1 39.8 µM [quencher, side channel, single point]
CCCn1c(-c2cc(OC)c(OC)c(OC)c2)nc2c1c(=O)[nH]c(=O)n2Cc1ccccc1 10 µM [fluorescent, side channel, partial curve]
Cc1ccc(C(=O)C[n+]2cc(-c3ccccc3)n3c2CCCCC3)cc1 12.6 µM [inhibitor, partial curve]
COn1c(=O)c(-c2ccccc2)[n+]([O-])c2ccccc21 31.6 µM [inhibitor, partial curve]
O=C(c1ccc(Cl)cc1)N1N=CCC1(O)c1ccc(Cl)cc1 (stereo not drawn) 11.2 µM [quencher, side channel, partial curve]
NNC(=O)c1[nH]c2ccc([N+](=O)[O-])cc2c1-c1ccccc1 7.08 µM [fluorescent, side channel, partial curve]
O=c1c(CCc2ccccc2)nc2cnc(N3CCOCC3)nc2n1C1CC1 3.16 µM [fluorescent, side channel, partial curve]
CC1CCCN(S(=O)(=O)c2ccc(C(=O)Nc3nnc(-c4ccccc4Cl)o3)cc2)C1 (stereo not drawn) 20 µM [quencher, side channel, partial curve]
OC[C@@H]1[C@@H](c2ccc(Cl)cc2)C(c2cccc(Cl)c2)=NN1c1ccccc1 11.2 µM [quencher, side channel, partial curve]
COc1ccc(-c2cc(C(F)(F)F)c(C#N)c(SCC(=O)Nc3ccccc3C#N)n2)cc1 2.82 µM [fluorescent, side channel, single point]
COc1ccc(/C=N/Nc2nnc(-c3ncc[nH]3)c3ccccc23)cc1 10 µM [quencher, side channel, partial curve]
CN=C1C=C/C(=N/N=c2\ccn(O)cc2C)C=C1C 17.8 µM [inhibitor, partial curve, poor fit]
COc1cccc2sc(Nc3nc(-c4ccccn4)cs3)nc12 20 µM [quencher, side channel, partial curve]
Cc1ccc(N=C2NC(=O)/C(=C\c3ccc(C)s3)S2)cc1 15.8 µM [inhibitor, partial curve]
COc1cccc(C2C(C(=O)c3cccs3)=C(O)C(=O)N2CCN2CCOCC2)c1 (stereo not drawn) 22.4 µM [inhibitor, partial curve]
Cc1nc(N)sc1-c1csc(Nc2ncccn2)n1 28.2 µM [quencher, side channel, partial curve]
COc1ccc(S(=O)(=O)Nc2nc3ccccc3nc2NCc2ccc3c(c2)OCO3)cc1 8.91 µM [quencher, side channel, partial curve]
CCCCn1c(=O)[nH]c2nc3cc(N)ccc3nc2c1=O 15.8 µM [quencher, side channel, partial curve]
O=[N+]([O-])c1ccc(/C=C/c2ccc3cccc([N+](=O)[O-])c3n2)cc1 7.94 µM [quencher, side channel, full curve]
COc1ccc(C(=O)Nc2cccc(NC(=O)c3cccs3)c2)cc1 20 µM [quencher, side channel, partial curve]
CCCCCCN(CCCCCC)C(=O)Cc1c(-c2ccc(F)cc2)[nH]c2ccccc12 8.91 µM [fluorescent, side channel, partial curve]
O=C(CSCc1ccc([N+](=O)[O-])cc1)Nc1ccc(S(=O)(=O)N2CCCCCC2)cc1 39.8 µM [quencher, side channel, single point]
COc1cc(-c2cc(C(=O)OCC(=O)Nc3ccc4c(c3)OCO4)c3ccccc3n2)cc(OC)c1OC 22.4 µM [quencher, side channel, partial curve]
O=C1SCCC1NS(=O)(=O)c1ccc([N+](=O)[O-])cc1 (stereo not drawn) 28.2 µM [quencher, side channel, single point]
CCc1ccc(NC(=O)CCS(=O)(=O)c2ccc(Cl)cc2)cc1 39.8 µM [inhibitor, single point]
Brc1ccc(-c2nnc(-c3cccc(Br)c3)o2)cc1 3.16 µM [inhibitor, partial curve]
CCc1cc2c(=O)c(-c3cscn3)coc2c(CN(C)C)c1O 39.8 µM [quencher, side channel, single point]
COc1cccc(/C=N/NC(=O)c2cc3c(OC)ccc(OC)c3[nH]2)c1O 3.16 µM [quencher, side channel, full curve]
Cc1cc(-c2onc3ccc(Cl)cc23)ccc1O 20 µM [quencher, side channel, partial curve]
Cc1cc(=O)c2c(O)c3c(O)cc(O)c4c5c(O)cc(O)c6c(O)c7c(=O)cc(C)c8c1c2c(c34)c(c65)c78 3.16 µM [fluorescent, side channel, full curve]
COc1cccc(CNc2cccc3cccnc23)c1O 28.2 µM [quencher, side channel, single point]
C=CCN(CC=C)S(=O)(=O)c1ccc(NC(=S)NC(=O)c2ccc(-c3ccccc3)cc2)cc1 39.8 µM [inhibitor, single point]
O=C(CCc1c[nH]c2ccccc12)N/N=C/c1ccc2c(c1)OCO2 25.1 µM [quencher, side channel, single point]
COc1ccccc1CCNC(=O)CC1C(=O)NCCN1CCCc1ccccc1 (stereo not drawn) 25.1 µM [fluorescent, side channel, single point]
COC(=O)C(C)Oc1ccc(-c2nccc(-c3cccs3)n2)cc1 (stereo not drawn) 22.4 µM [quencher, side channel, partial curve]
C/C=C/c1ccc(OCC(=O)Nc2ccc(C(N)=O)cc2)c(OC)c1 35.5 µM [fluorescent, side channel, single point]
O=C(Nc1cccnc1)c1cc(-c2cccs2)on1 28.2 µM [inhibitor, single point]
COc1ccc(/C=C/C(=O)Nc2cccc(N3CCOCC3)c2)cc1OC 25.1 µM [quencher, side channel, partial curve]
COc1ccc(NC(=O)c2cc(-c3ccccc3OC)on2)cc1 17.8 µM [quencher, side channel, partial curve]
CCCOc1ccccc1N/C(=N/c1nc(C)cc(C)n1)NC(=O)Nc1ccc(Cl)cc1 39.8 µM [inhibitor, single point]
CCN1/C(=C/c2ccc3cc(C)ccc3[n+]2CC)Sc2cc(C)c(C)cc21 22.4 µM [fluorescent, side channel, partial curve]
O=C(CSc1ccc(-c2nc3ccccc3[nH]2)cn1)Nc1ccc(S(=O)(=O)NC2CC2)cc1 17.8 µM [quencher, side channel, single point]
O=C(NCCc1ccc(Cl)cc1)Nc1cccc(Cl)c1 39.8 µM [quencher, side channel, single point]
O=C(NNC(=S)Nc1ccc(F)c(Cl)c1)C1CC1 31.6 µM [quencher, side channel, single point]
FC(F)(F)c1cc(CN2CCCC3(CCNCC3)C2)cc(C(F)(F)F)c1 12.6 µM [inhibitor, partial curve]
